From the supplement of paper PMC12067093, “Discovery and optimisation of a covalent ligand for TRIM25 and its application to targeted protein ubiquitination” (Chemical Science, 2025)
Targets with the largest changes are over-represented here; the source holds about 21,000 in all.

Compound: Cc1cc(ccc1-c1ccccc1)C(=O)N1CCCN(CC1)C(=O)CCl [compound 10]
Test: probe-labelled cysteine peptide fold change vs DMSO (competition) (log2 fold change); higher = less target engagement (more negative = stronger competition)
Conditions: THP-1, incubation time: 4 h
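Further: competitive profiling in live THP-1 cells: cysteine peptides tagged with an iodoacetamide desthiobiotin (IA-DTB) probe, intensity after compound treatment relative to DMSO-treated cells.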

## PFKP_Q01813_123_GITNLCVIGGDGSLTGANLFR (UniProt Q01813)
10 µM
  probe-labelled cysteine peptide fold change: -0.126
50 µM
  probe-labelled cysteine peptide fold change: 0.34

## PDS5A_Q29RF7_532_QPTSEANCSAMFGK (UniProt Q29RF7)
10 µM
  probe-labelled cysteine peptide fold change: -0.362
50 µM
  probe-labelled cysteine peptide fold change: -1.84

## PFAS_O15067_270_FCDNSSAIQGK (UniProt O15067)
10 µM
  probe-labelled cysteine peptide fold change: -3.92
50 µM
  probe-labelled cysteine peptide fold change: -3.29

## PPIL4_Q8WUA2_392_THHCSEEK (UniProt Q8WUA2)
10 µM
  probe-labelled cysteine peptide fold change: 0.0136
50 µM
  probe-labelled cysteine peptide fold change: 0.377

## PML_P29590_227_CDISAEIQQR (UniProt P29590)
10 µM
  probe-labelled cysteine peptide fold change: -0.0553
50 µM
  probe-labelled cysteine peptide fold change: 0.0385

## PBRM1_Q86U86_1035_CVVMFVK (UniProt Q86U86)
10 µM
  probe-labelled cysteine peptide fold change: 0.0846
50 µM
  probe-labelled cysteine peptide fold change: 0.286

## PLXNB2_O15031_364_SFPCGSEHLPYPLGSR (UniProt O15031)
10 µM
  probe-labelled cysteine peptide fold change: 0.049
50 µM
  probe-labelled cysteine peptide fold change: 0.128

## PPP4C_P60510_266_CGNVAAILELDEHLQK (UniProt P60510)
10 µM
  probe-labelled cysteine peptide fold change: 0.0329
50 µM
  probe-labelled cysteine peptide fold change: -0.316

## PFKL_P17858_630_CHDYYTTEFLYNLYSSEGK (UniProt P17858)
10 µM
  probe-labelled cysteine peptide fold change: -0.0345
50 µM
  probe-labelled cysteine peptide fold change: -0.0915

## POLRMT_O00411_413_VCVVSVEKPTLPSK (UniProt O00411)
10 µM
  probe-labelled cysteine peptide fold change: 0.19
50 µM
  probe-labelled cysteine peptide fold change: -0.636

## PPP2R1A_P30153_512_MTTLFCINVLSEVCGQDITTK (UniProt P30153)
10 µM
  probe-labelled cysteine peptide fold change: 0.146
50 µM
  probe-labelled cysteine peptide fold change: 0.0625

## PPP3CA_Q08209_228_FKEPPAYGPMCDILWSDPLEDFGNEK (UniProt Q08209)
10 µM
  probe-labelled cysteine peptide fold change: 0.209
50 µM
  probe-labelled cysteine peptide fold change: 0.221

## POLA1_P09884_584_AAPKPPFQSHFCVVSKPK (UniProt P09884)
10 µM
  probe-labelled cysteine peptide fold change: -0.0155
50 µM
  probe-labelled cysteine peptide fold change: -0.312

## POT1_Q9NUX5_605_IDAYPWLECFIK (UniProt Q9NUX5)
10 µM
  probe-labelled cysteine peptide fold change: 0.32
50 µM
  probe-labelled cysteine peptide fold change: 0.162

## PHPT1_Q9NRX4_71_QGCDCECLGGGR (UniProt Q9NRX4)
Chain of UniProt Q9NRX4 (Q9NRX4 whole entry, looked up): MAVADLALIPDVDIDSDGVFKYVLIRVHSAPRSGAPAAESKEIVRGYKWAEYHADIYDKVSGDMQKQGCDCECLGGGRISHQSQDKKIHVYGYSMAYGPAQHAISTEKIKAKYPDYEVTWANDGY
10 µM
  probe-labelled cysteine peptide fold change: 0.169
50 µM
  probe-labelled cysteine peptide fold change: 0.21

## PKM_P14618_326_PVICATQMLESMIK (UniProt P14618)
10 µM
  probe-labelled cysteine peptide fold change: -0.25
50 µM
  probe-labelled cysteine peptide fold change: 0.00777

## PNN_Q9H307_249_MCPATQK (UniProt Q9H307)
10 µM
  probe-labelled cysteine peptide fold change: -0.399
50 µM
  probe-labelled cysteine peptide fold change: -2.94

## PNPO_Q9NVS9_156_KLPEEEAECYFHSRPK (UniProt Q9NVS9)
10 µM
  probe-labelled cysteine peptide fold change: -0.121
50 µM
  probe-labelled cysteine peptide fold change: -0.243

## PEX1_O43933_1185_TASQEGCQELTQEQR (UniProt O43933)
10 µM
  probe-labelled cysteine peptide fold change: -0.38
50 µM
  probe-labelled cysteine peptide fold change: -2.31

## PHKA1_P46020_91_GLLHCMIR (UniProt P46020)
10 µM
  probe-labelled cysteine peptide fold change: 0.123
50 µM
  probe-labelled cysteine peptide fold change: 0.0144

## PMM1_Q92871_145_SCTLEER (UniProt Q92871)
10 µM
  probe-labelled cysteine peptide fold change: -0.16
50 µM
  probe-labelled cysteine peptide fold change: 0.0348

## PGP_A6NDG6_272_TVMVGDRLDTDILLGATCGLK (UniProt A6NDG6)
10 µM
  probe-labelled cysteine peptide fold change: 0.0484
50 µM
  probe-labelled cysteine peptide fold change: 0.0355

## PITPNM1_O00562_259_CNTGSEGSEAQPPGKPSTEAR (UniProt O00562)
10 µM
  probe-labelled cysteine peptide fold change: -0.207
50 µM
  probe-labelled cysteine peptide fold change: -0.205

## PHF14_O94880_874_AEDLRTECATCK (UniProt O94880)
10 µM
  probe-labelled cysteine peptide fold change: 0.0189
50 µM
  probe-labelled cysteine peptide fold change: -0.327

## PDCD11_Q14690_361_LSCQNLGAVLDDVPVQGFFKK (UniProt Q14690)
10 µM
  probe-labelled cysteine peptide fold change: -0.287
50 µM
  probe-labelled cysteine peptide fold change: -2.05

## POLR2B_P30876_1093_FGEMERDCQIAHGAAQFLR (UniProt P30876)
10 µM
  probe-labelled cysteine peptide fold change: -0.399
50 µM
  probe-labelled cysteine peptide fold change: -1.16

## PKM_P14618_423+424_CCSGAIIVLTK (UniProt P14618)
10 µM
  probe-labelled cysteine peptide fold change: -0.246
50 µM
  probe-labelled cysteine peptide fold change: -0.751

## POLR1A_O95602_880_ACMPFGLHR (UniProt O95602)
Chain of UniProt O95602 (O95602 whole entry, looked up): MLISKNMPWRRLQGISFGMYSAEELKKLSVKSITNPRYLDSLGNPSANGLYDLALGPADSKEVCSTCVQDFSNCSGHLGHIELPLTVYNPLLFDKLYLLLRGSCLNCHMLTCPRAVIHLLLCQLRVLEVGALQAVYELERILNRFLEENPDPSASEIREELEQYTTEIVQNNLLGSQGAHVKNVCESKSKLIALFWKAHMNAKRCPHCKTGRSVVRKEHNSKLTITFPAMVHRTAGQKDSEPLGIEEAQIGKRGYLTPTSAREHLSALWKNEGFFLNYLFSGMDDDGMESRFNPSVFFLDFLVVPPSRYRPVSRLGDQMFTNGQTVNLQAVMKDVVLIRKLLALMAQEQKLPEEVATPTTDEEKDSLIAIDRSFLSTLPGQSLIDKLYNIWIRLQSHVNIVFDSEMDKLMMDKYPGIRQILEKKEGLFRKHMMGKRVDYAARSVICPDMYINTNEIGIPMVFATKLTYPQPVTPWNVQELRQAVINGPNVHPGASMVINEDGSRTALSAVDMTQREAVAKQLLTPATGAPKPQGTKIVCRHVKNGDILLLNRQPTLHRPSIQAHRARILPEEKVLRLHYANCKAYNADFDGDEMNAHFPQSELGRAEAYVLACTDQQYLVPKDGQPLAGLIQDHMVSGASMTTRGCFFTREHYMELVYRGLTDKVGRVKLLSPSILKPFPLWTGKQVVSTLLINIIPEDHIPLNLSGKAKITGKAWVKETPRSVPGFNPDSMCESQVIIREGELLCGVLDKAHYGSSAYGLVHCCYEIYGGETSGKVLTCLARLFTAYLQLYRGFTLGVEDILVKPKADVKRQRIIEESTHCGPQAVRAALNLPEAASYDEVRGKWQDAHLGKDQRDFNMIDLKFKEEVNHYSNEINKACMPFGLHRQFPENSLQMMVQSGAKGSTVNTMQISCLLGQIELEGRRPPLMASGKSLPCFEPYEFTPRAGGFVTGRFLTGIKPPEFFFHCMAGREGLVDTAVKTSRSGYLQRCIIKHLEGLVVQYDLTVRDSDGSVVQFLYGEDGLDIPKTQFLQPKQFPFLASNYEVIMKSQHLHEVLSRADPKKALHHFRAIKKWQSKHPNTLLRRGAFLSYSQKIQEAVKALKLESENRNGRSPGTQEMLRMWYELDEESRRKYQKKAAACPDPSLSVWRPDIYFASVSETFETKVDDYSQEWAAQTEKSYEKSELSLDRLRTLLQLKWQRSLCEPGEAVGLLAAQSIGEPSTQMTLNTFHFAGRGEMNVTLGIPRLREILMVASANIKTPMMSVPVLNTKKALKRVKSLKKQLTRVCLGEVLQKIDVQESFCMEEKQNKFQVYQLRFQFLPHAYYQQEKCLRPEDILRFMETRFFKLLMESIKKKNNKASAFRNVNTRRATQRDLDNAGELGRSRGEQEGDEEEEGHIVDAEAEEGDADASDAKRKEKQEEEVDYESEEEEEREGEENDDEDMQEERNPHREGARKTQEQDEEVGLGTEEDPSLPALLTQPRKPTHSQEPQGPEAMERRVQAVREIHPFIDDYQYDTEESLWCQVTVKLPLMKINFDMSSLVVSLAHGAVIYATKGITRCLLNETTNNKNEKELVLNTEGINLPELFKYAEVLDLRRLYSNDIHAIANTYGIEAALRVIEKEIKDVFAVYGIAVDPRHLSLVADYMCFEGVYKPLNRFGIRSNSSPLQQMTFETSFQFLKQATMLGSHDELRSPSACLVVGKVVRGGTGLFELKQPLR
10 µM
  probe-labelled cysteine peptide fold change: 0.0335
50 µM
  probe-labelled cysteine peptide fold change: 0.0428

## PLEKHA2_Q9HB19_332_SISLTRPGSSSLSSGPNSILCR (UniProt Q9HB19)
10 µM
  probe-labelled cysteine peptide fold change: -0.321
50 µM
  probe-labelled cysteine peptide fold change: -1.3

## PPFIA1_Q13136_189_CSLLEEELGATHK (UniProt Q13136)
10 µM
  probe-labelled cysteine peptide fold change: 0.194
50 µM
  probe-labelled cysteine peptide fold change: 0.209

## PLPBP_O94903_15_AGSMSAELGVGCALR (UniProt O94903)
10 µM
  probe-labelled cysteine peptide fold change: -0.217
50 µM
  probe-labelled cysteine peptide fold change: -0.942

## PAXIP1_Q6ZW49_136_CTHLIVPEPK (UniProt Q6ZW49)
10 µM
  probe-labelled cysteine peptide fold change: 0.11
50 µM
  probe-labelled cysteine peptide fold change: 0.308

## PPP1CC_P36873_127_GNHECASINR<|>PPP1CA_P62140_127_GNHECASINR (UniProt P62140+P36873)
10 µM
  probe-labelled cysteine peptide fold change: -0.0251
50 µM
  probe-labelled cysteine peptide fold change: 0.0252

## PIK3CD_O00329_416_KADCPIAWANLMLFDYK (UniProt O00329)
Chain of UniProt O00329 (O00329 whole entry, looked up): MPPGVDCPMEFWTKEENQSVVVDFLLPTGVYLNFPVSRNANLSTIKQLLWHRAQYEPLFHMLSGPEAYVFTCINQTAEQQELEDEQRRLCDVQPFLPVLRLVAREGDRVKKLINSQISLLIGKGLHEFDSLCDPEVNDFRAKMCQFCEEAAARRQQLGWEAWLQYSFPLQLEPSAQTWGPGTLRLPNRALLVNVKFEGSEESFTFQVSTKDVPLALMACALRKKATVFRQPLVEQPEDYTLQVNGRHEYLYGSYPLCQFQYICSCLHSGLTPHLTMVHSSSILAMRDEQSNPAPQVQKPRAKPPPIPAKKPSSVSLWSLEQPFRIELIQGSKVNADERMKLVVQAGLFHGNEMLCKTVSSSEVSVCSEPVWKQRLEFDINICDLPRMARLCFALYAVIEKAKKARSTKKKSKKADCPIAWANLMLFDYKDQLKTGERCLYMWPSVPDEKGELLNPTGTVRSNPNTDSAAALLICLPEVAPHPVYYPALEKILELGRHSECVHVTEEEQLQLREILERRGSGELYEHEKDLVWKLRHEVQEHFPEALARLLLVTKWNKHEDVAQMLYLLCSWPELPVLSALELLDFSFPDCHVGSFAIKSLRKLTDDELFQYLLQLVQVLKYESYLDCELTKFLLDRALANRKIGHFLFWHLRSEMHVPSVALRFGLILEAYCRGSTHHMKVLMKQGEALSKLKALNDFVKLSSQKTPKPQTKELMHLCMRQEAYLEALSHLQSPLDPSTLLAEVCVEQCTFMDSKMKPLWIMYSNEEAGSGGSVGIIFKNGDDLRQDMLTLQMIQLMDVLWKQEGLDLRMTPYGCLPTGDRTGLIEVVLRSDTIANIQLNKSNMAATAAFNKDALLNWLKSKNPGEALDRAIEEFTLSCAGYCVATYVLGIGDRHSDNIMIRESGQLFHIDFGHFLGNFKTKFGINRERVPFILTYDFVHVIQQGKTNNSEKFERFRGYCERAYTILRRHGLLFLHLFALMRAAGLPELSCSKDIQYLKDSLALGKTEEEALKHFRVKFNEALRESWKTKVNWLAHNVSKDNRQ
10 µM
  probe-labelled cysteine peptide fold change: -0.0154
50 µM
  probe-labelled cysteine peptide fold change: -0.108

## PLD4_Q96BZ4_502_YAVGLDGQAPGQDCVWQG (UniProt Q96BZ4)
10 µM
  probe-labelled cysteine peptide fold change: 0.0642
50 µM
  probe-labelled cysteine peptide fold change: 0.451

## PGM3_O95394_249_LNHLCGADFVK (UniProt O95394)
10 µM
  probe-labelled cysteine peptide fold change: -0.182
50 µM
  probe-labelled cysteine peptide fold change: -0.253

## PDS5A_Q29RF7_686_VLSFTHPTSFHSAETYESLLQCLR (UniProt Q29RF7)
10 µM
  probe-labelled cysteine peptide fold change: -0.155
50 µM
  probe-labelled cysteine peptide fold change: -0.0261

## PASK_Q96RG2_991_AVELEGLAACEGEYSQK (UniProt Q96RG2)
10 µM
  probe-labelled cysteine peptide fold change: -0.902
50 µM
  probe-labelled cysteine peptide fold change: -2

## PGM2_Q96G03_86_MNDLTIIQTTQGFCR (UniProt Q96G03)
Chain of UniProt Q96G03 (Q96G03 whole entry, looked up): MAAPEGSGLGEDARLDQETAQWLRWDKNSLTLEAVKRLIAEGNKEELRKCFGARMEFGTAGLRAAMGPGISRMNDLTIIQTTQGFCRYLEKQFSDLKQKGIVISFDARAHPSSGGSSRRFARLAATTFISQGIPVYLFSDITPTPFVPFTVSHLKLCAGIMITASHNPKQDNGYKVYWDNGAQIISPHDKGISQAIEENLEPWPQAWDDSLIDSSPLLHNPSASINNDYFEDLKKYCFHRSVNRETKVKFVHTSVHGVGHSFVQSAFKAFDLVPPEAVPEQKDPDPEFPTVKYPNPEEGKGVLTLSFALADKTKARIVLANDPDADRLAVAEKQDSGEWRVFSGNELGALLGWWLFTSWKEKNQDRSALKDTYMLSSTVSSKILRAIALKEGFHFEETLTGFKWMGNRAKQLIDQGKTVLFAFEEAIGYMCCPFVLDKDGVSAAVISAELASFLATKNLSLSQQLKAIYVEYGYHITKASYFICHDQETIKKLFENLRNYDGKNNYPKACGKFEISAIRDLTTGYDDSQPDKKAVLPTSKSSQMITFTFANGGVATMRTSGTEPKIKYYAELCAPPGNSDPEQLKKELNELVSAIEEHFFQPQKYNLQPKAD
10 µM
  probe-labelled cysteine peptide fold change: 0.11
50 µM
  probe-labelled cysteine peptide fold change: -0.14

## POMP_Q9Y244_37_KGFSCVK (UniProt Q9Y244)
Chain of UniProt Q9Y244 (Q9Y244 whole entry): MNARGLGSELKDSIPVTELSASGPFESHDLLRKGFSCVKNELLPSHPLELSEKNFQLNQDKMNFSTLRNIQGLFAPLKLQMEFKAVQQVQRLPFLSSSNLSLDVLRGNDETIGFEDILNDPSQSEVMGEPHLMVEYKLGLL
10 µM
  probe-labelled cysteine peptide fold change: -0.332
50 µM
  probe-labelled cysteine peptide fold change: -1.41

## PNPLA6_Q8IY17_991_GCSHIGVLK (UniProt Q8IY17)
Chain of UniProt Q8IY17 (Q8IY17 whole entry, looked up): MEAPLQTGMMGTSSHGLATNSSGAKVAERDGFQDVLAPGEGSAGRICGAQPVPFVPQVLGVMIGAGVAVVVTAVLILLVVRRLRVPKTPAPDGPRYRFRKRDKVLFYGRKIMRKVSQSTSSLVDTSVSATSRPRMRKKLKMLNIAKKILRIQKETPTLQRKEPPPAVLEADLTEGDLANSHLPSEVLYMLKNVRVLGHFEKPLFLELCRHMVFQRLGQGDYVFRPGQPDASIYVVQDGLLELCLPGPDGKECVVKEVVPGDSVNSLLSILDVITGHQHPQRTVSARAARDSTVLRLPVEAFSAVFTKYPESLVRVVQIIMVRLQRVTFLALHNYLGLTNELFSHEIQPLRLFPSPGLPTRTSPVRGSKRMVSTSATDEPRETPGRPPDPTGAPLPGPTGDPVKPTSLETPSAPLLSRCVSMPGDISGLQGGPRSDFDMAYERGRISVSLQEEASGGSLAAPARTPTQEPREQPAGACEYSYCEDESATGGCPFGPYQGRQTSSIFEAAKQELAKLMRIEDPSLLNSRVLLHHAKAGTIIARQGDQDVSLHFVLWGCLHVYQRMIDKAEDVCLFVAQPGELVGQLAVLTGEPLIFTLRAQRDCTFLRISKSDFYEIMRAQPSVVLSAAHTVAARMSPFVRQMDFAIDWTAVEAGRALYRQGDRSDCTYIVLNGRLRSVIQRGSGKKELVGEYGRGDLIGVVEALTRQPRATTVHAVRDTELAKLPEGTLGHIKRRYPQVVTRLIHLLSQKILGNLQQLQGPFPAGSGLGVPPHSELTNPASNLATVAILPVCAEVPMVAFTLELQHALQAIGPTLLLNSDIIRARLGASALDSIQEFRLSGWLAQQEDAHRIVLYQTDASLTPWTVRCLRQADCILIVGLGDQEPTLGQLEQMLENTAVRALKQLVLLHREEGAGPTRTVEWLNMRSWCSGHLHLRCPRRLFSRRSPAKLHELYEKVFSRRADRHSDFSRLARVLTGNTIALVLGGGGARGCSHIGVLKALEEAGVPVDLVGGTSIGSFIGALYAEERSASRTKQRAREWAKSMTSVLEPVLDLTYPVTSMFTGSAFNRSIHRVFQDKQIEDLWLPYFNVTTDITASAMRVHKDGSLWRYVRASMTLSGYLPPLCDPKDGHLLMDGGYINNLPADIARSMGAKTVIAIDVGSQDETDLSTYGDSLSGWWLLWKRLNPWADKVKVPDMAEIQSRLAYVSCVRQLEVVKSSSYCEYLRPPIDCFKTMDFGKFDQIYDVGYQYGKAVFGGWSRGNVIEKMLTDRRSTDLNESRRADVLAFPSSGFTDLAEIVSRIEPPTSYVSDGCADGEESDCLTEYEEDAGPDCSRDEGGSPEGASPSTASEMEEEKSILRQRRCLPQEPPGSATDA
10 µM
  probe-labelled cysteine peptide fold change: -0.0678
50 µM
  probe-labelled cysteine peptide fold change: -0.101

## PEX11B_O96011_153_LLMEQESSACSR (UniProt O96011)
10 µM
  probe-labelled cysteine peptide fold change: -0.232
50 µM
  probe-labelled cysteine peptide fold change: -1.5
